Reference: PubChem BioAssay AID1347073 (National Center for Advancing Translational Sciences (NCATS), 2019)
In all, about 45,000 compounds went through this assay and about 200 (0.44%) were called active. About 7% were inconclusive and are not listed. The call rests on the fitted dose curve; in most records, active means well fitted activation curve with a large enough effect; inconclusive means small, poorly fitted or top-dose-only effect; inactive means no such curve, though single readings can be large or run the other way. The list shows a part of the results.

assay: qHTS of TDP-43 Inhibitors: NCGC Sytravon Library Screen; details: yeast TDP-43 toxicity rescue, BacTiter-Glo growth, 24 h; series mostly up to 46.1 µM; growth rescue (activation): at the top concentration; further: 0% is about no effect; nearly all actives have a fitted effect of over 55% in size
How it was run: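 TDP-43-expressing yeast, pregrown in raffinose, seeded at OD600 0.02 in galactose medium with compound for 24 hr at 30 deg C. Growth read by BacTiter-Glo luminescence, so rescue of toxicity appears as activation.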

Row | SMILES | growth rescue (activation)
1 | O=C(CC(=O)NC1CCCCC1)N/N=C/c1ccccc1[N+](=O)[O-] | inactive: -2.84%
2 | CC(=O)NC(Cc1ccc(C(C)C)cc1)C(=O)NC1CCN(C(=O)c2cccc(C)c2)CC1 (centres undefined) | inactive: 14.4%
3 | COc1ccc(C(=O)C[n+]2ccc(C)cc2)cc1 | inactive: 25.9%
4 | Cc1ccc(N2CC(C(=O)N3CCN(c4ccccn4)CC3)CC2=O)cc1 (centres undefined) | inactive: -7.13%
5 | COc1cc(/C=C/C(=O)O)cc(S(=O)(=O)Nc2ccccc2C(=O)NCc2ccco2)c1OC | inactive: -16.7%
6 | COc1cc(NC(=NS(=O)(=O)c2ccccc2)c2ccccc2)ncn1 | inactive: 6.51%
7 | CCc1ccc(S(=O)(=O)NCCc2cn3ccccc3n2)s1 | inactive: -13.1%
8 | Cc1ccccc1NC(=O)Cn1c(=O)n(CCCCCC(=O)NCc2ccc3c(c2)OCO3)c(=O)c2sccc21 | inactive: 4.35%
9 | COc1ccccc1C(=O)NCC(=O)N/N=C/c1cn[nH]c1-c1ccccc1 | inactive: 8.69%
10 | Cc1ccc(S(=O)(=O)NCCCCCC(=O)NC(C)(C)CO)cc1 | inactive: 3.49%
11 | CC(=O)Nc1ccc(SCC(=O)O)cc1 | inactive: -1.38%
12 | O=S(=O)(Nc1nc2ccccc2nc1Cl)c1ccccc1C(F)(F)F | inactive: 7.54%
13 | O=C(NCC(c1cccnc1)N1CCN(c2ccc(F)cc2)CC1)c1ccc(F)cc1 (centres undefined) | inactive: -29.2%
14 | O=C(/C=C/c1cccc([N+](=O)[O-])c1)n1cnc2ccccc21 | inactive: -11.3%
15 | CC(/C=C1\SC(=S)N(C(C(=O)O)C(C)C)C1=O)=C\c1ccccc1 (centres undefined) | inactive: -91.1%
16 | COc1cc(/C=N/Nc2ccc3ccccc3c2)ccc1OC(=O)c1ccco1 | inactive: 9.97%
17 | O=C(N/C(=C\c1cccs1)C(=O)N1CCOCC1)c1cccs1 | inactive: -4.76%
18 | O=C(CSc1ccc([N+](=O)[O-])cn1)Nc1ccc2c(c1)OCO2 | inactive: 22.7%
19 | CCn1c(=N)n(CC(=O)c2cccc([N+](=O)[O-])c2)c2ccccc21 | inactive: 18.9%
20 | CC(C)CN(C(=O)CSc1nc(N)cc(N)n1)C1CCS(=O)(=O)C1 (centres undefined) | inactive: 1.57%
21 | COc1cccc(Nc2nc(C(N)CO)cs2)n1 (centres undefined) | inactive: 0.635%
22 | O=C(NCc1ccccn1)C(=O)Nc1nc(-c2ccccc2)cs1 | inactive: 12.2%
23 | Cc1ccc(S(=O)(=O)N2CCN(CC(=O)N/N=C\c3ccc(Cl)c([N+](=O)[O-])c3)CC2)cc1 | inactive: 9.81%
24 | CCCC(C)NC(=O)c1sc2nc3n(c(=O)c2c1C)CCC3 (centres undefined) | inactive: 9.98%
25 | Cc1cc(C)n(-c2nc(NCCN(C)C)c3c4c(sc3n2)CCCC4)n1 | inactive: -16.2%
26 | Cc1cccc(-n2nc3c([n+]2[O-])CCc2nonc2-3)c1C | inactive: 2.15%
27 | OC1CCC(NC(=S)Nc2ccc(SC(F)F)cc2)CC1 (centres undefined) | inactive: 8.57%

Row | SMILES | growth rescue (activation)
28 | O=C(Nc1ccccc1Cl)c1sccc1-c1ccccc1 | inactive: 19.8%
29 | c1ccc(Cc2cc[n+](Cc3ccccn3)cc2)cc1 | inactive: 1.67%
30 | O=C(Nc1c(C(=O)N2CCOCC2)cnn1-c1ccccc1)c1cccc(F)c1 | inactive: 11.1%
31 | CCOc1ccccc1NC(=O)NCc1ccccc1 | inactive: 19.1%
32 | Fc1ccc(Nc2nc(NCc3ccccc3)nc3ccsc23)cc1 | inactive: 13%
33 | COc1cc2c(cc1OC)C(c1ccc(C(F)(F)F)cc1)CC(=O)N2 (centres undefined) | inactive: 5.28%
34 | CCOc1ccccc1N(C)S(=O)(=O)c1ccc2[nH]cc(C(=O)N(CCOC)CCOC)c(=O)c2c1 | inactive: 2.66%
35 | O=C(O)/C(=C/c1ccc(Cl)c([N+](=O)[O-])c1)c1ccc(S(=O)(=O)N2CCCCC2)s1 | inactive: 11%
36 | CCOc1ccccc1N(CC)C(=O)c1ccc2c(=O)n3c(nc2c1)CCCCC3 | inactive: 15.6%
37 | COc1ccc(NC(=S)N(CCCN2CCOCC2)C(C)c2cc3cccc(OC)c3o2)cc1 (centres undefined) | inactive: 14.4%
38 | N=c1occ(C(=O)c2cc(F)ccc2O)cc1C(=O)NC1CCCCC1 | inactive: -1.37%
39 | Cc1ccc(NC(=O)COC(=O)C2C3CC4OC(=O)C2C4C3)cc1 (centres undefined) | inactive: -3.18%
40 | Cc1ccc(S(=O)(=O)N(C)CC(=O)Nc2cccnc2)cc1 | inactive: 2.98%
41 | O=C(COC(=O)c1cccc(Cl)c1)NCc1ccccc1 | inactive: 6.34%
42 | CC(C)CNC(=O)COC(=O)c1ccc(Cl)c(S(=O)(=O)N2CCc3ccccc32)c1 | inactive: 5.1%
43 | O=c1[nH]c(SCCN2CCOCC2)nc(O)c1-c1ccccc1 | inactive: -3.02%
44 | CNc1cccc(-c2c(OC)cccc2OC)n1 | inactive: 5.95%
45 | O=c1c2[nH]c3ccc(Cl)cc3c2ncn1CCN1CCCCC1 | inactive: 26.3%
46 | Cn1c(Cc2ccc3c(c2)OCO3)nnc1SCC(=O)NC(C)(C)C | inactive: 10%
47 | O=C(CCC1CCCC1)NNC(=O)c1cc2ccccc2cc1O | inactive: 9.54%
48 | S=C(NCc1ccc(Cl)cc1)NC1CCN(Cc2ccccc2)CC1 | inactive: -4.29%
49 | O=C(NCC1CCCO1)c1ccc(N2C(=O)C3CCCCC3C2=O)cc1 (centres undefined) | inactive: 17.7%
50 | CCOC(=O)N1CCN(C(=O)C2CCCN(S(=O)(=O)c3c(C)cc(C)cc3C)C2)CC1 (centres undefined) | inactive: 21.1%
51 | Cc1ccc(F)cc1C(=O)N1CCC1(C)C(=O)O (centres undefined) | inactive: 8.71%
52 | Cc1ccc(C)c2[nH]c(=O)c(CN(CC3CCCO3)C(=S)NCc3ccco3)cc12 (centres undefined) | inactive: 12.9%
53 | CN(C)S(=O)(=O)c1cccc(C(=O)Nc2ccccc2N2CCCCC2)c1 | inactive: 27.6%
54 | Cc1cc(C(=O)N/N=C/c2ccc([N+](=O)[O-])s2)n[nH]1 | inactive: 12.4%
